PubChem BioAssay AID463173 (ICCB-Longwood Screening Facility, Harvard Medical School, 2010)
About 1,700 (3.3%) of roughly 52,000 compounds were called active. Rule as the data show it: active = survival mostly below about 52% (no sharp cut-off); inactive = mostly above about 56%. This is one part of the list.

What follows are compounds tested on Wild type (assay: S. aureus survival, RN4220 and DeltatarO strains – OD600, teichoic acid synthesis inhibitors, primary screen (AID 463173)). Settings: S. aureus RN4220 wild type/DeltatarO growth, OD600, 18 h, hits give low values, screened at 18.75 µg/mL (by protocol).

Compound | survival
CCOc1ccc2nc(NCCCNC(=O)C3CCCO3)c(C#N)cc2c1 (stereo not drawn) | inactive: 105%
CCOc1ccc(CNC(=O)c2nn(-c3ccc(OC)cc3)c(=O)c3c2c2ccccc2n3C)cc1 | inactive: 125%
Cc1ccc(-c2ccc(CCC(=O)O)n2-c2ccc(C(N)=O)cc2)cc1 | inactive: 86%
NC(=O)CSc1ncc2c(n1)-c1ccccc1N(Cc1ccc(F)cc1)S2(=O)=O | inactive: 83%
CCOc1ccc(C(=O)Nc2ccc3nc(SCC(=O)N4CCc5ccccc54)sc3c2)cc1 | inactive: 77%
CC1=C(c2ccc(C)cc2)S(=O)(=O)N(Cc2ccc(C(=O)Nc3ccc(C)c(F)c3)cc2)C1=O | inactive: 83%
COc1ccc(-c2cc3ccc(O)c(CN4CCCC4)c3oc2=O)cc1 | inactive: 124%
Cc1ccc(-c2c(C(=O)NCCc3ccccc3)oc(=O)c3ccccc23)cc1 | inactive: 79%
COc1ccc(-c2n[nH]c3c2cnc2ccc(F)cc23)cc1 | inactive: 131%
CCCSc1nc(-c2ccccc2)[nH]c1S(=O)(=O)c1ccc(C)cc1 | inactive: 55%
Cc1cc(C)c2oc(-c3ccc(Cl)c(NC(=O)c4cccs4)c3)nc2c1 | inactive: 63%
CCn1cc(C(=O)NCCCOC)c(=O)c2cc(S(=O)(=O)N3CCc4ccccc4C3)ccc21 | inactive: 78%
COc1ccccc1NC(=O)c1cnc(SCC(=O)N2CCOCC2)n(C)c1=O | inactive: 77%
N#C/C(=C\c1ccc(-c2cccc(Cl)c2)o1)C(N)=O | inactive: 114%
COc1ccc2c(c1)c1c(c(=O)n(Cc3ccccc3)c(=O)n1Cc1cccc(Cl)c1)n2C | inactive: 99%
Cc1cc(C)cc(NC(=O)C2CCN(S(=O)(=O)c3cn(C)cn3)CC2)c1 | inactive: 73%
O=c1oc2ccc3ccccc3c2cc1-c1nnc(Nc2ccccc2F)s1 | inactive: 76%
CCOC(=O)C1CCCN(CC(=O)Nc2cc(C)c3c(=O)oc4ccccc4c3n2)C1 (stereo not drawn) | inactive: 81%
CCc1cccc(C)c1NC(=O)Cn1nnc(-c2nc(-c3ccccc3F)no2)c1N | inactive: 99%
Cc1cc2c(cc1NS(=O)(=O)c1cccc(C#N)c1)n(C)c(=O)c(=O)n2C | inactive: 81%

Compound | survival
CCCOc1ccc(C2C(=O)N(C3CCC(C)CC3)CC(=O)N2Cc2cccc(OC)c2)cc1OC (stereo not drawn) | inactive: 81%
Cn1cc(S(=O)(=O)N2CCCCCC2)cc1C(=O)Nc1ccc(Cl)c(C(F)(F)F)c1 | inactive: 60%
COc1ccc(NS(=O)(=O)c2cc3c(cc2C)N(C(C)=O)CCO3)cc1 | inactive: 93%
CC1=Nc2cc(C(=O)N3CCC(C)CC3)ccc2Sc2ccc(Cl)cc21 | inactive: 81%
COc1ccc(NC(=O)CS(=O)CC(=O)Nc2ccc(NC(C)=O)cc2)cc1 (stereo not drawn) | inactive: 105%
Cc1ccc2c(c1)nnn2C1CCN(C(=O)N(c2ccccc2)c2ccccc2)CC1 | inactive: 112%
O=C(CSc1nnnn1C1CCCC1)NCc1cccs1 | inactive: 107%
CCc1ccc(NC(=O)C2CCCN2S(=O)(=O)c2ccc3c(c2)CCCC(=O)N3)cc1 (stereo not drawn) | inactive: 73%
COc1ccc(CCNC(=O)c2ccc(Cn3c(=O)c4ccccc4n(Cc4cccc(F)c4)c3=O)cc2)cc1OC | inactive: 74%
Cc1oc2c(c1C(=O)Nc1ccc(OC(F)(F)F)cc1)C1=NCCN1C=N2 | inactive: 89%
CC(CC(=O)NCc1cccnc1)c1ccccc1 (stereo not drawn) | inactive: 115%
CCc1ccc(NC(=O)CCc2c(C)nn(-c3ccc(N4CCCC4)nn3)c2C)cc1 | inactive: 72%
COc1nc(N)c(C#N)c(-c2ccc(C)cc2)c1C#N | inactive: 121%
Oc1ccc2ccccc2c1/C=N/c1nccs1 | inactive: 106%
O=C(O)C1CC=CCC1Cc1ccccc1 (stereo not drawn) | inactive: 95%
COc1ccc(NS(=O)(=O)c2cnc(N)nc2)cc1Cl | inactive: 63%
O=C(COc1ccc2oc3c(c2c1)CCCC3)Nc1ccccn1 | inactive: 110%
CC(=O)c1ccc(Oc2ncnc3c2oc2ccccc23)cc1 | inactive: 128%
Cc1cc(=O)[nH]c2nnc(SCC(N)=O)n12 | inactive: 66%
COc1ccc(C(=O)c2c(N)c(C(=O)Nc3ccccc3Cl)c3ccccn23)cc1 | inactive: 87%

Compound | survival
O=C(COc1ccc2oc3c(c2c1)CCCC3)Nc1cccc(Br)c1 | inactive: 31%
COc1cccc(CN2CCC(C(=O)N3CCCC(C)C3)CC2)c1 (stereo not drawn) | inactive: 110%
O=C(NCCCc1ccccc1)c1cccs1 | inactive: 121%
CCCCc1ccc(C(=O)c2c(N)c(C(=O)Nc3cccc(OC)c3)c3ccccn23)cc1 | inactive: 88%
Cc1nnc(N2C(=O)c3oc4ccccc4c(=O)c3C2c2cccc(OCCC(C)C)c2)s1 (stereo not drawn) | inactive: 66%
COc1cc(C(=O)NCCc2sc(-c3ccc(C)cc3)nc2C)cc(OC)c1OC | inactive: 87%
CC1CCN(C(=O)Cn2cc(SCC(=O)NCc3ccc(F)cc3)c3ccccc32)CC1 | inactive: 89%
COc1ccc(C(=O)/C=C/c2cn(CC(O)CN3CCCCCC3)c3ccccc23)cc1OC (stereo not drawn) | inactive: 96%
COCCCNC(=O)c1c(NC(=O)Cc2coc3cc(C)ccc23)sc2c1CCCC2 | inactive: 80%
Cn1c(=O)c2cc(C(=O)NCCCN3CCN(c4ccc(F)cc4)CC3)sc2c2ccccc21 | inactive: 81%
CC(=N/Nc1nnc(C)n1N)/C(C)=N/Nc1nnc(C)n1N | inactive: 110%
O=[N+]([O-])c1cc(-c2nc(-c3ccccc3)no2)ccc1NCc1ccco1 | inactive: 82%
COc1ccc(NC(=O)CSc2nc3ccccc3nc2N2CCOCC2)c(OC)c1 | inactive: 65%
Cc1ccc(-c2noc(-c3ccc(N4CCOCC4)c([N+](=O)[O-])c3)n2)cc1 | inactive: 77%
Cc1ccc(C(=O)c2oc3ccccc3c2NC(=O)COc2ccccc2C)cc1 | inactive: 84%
Cc1ccc(C)c2c(N)c3c(nc12)CCCCC3 | inactive: 96%
Cc1ccccc1CN1C(=O)c2ccccc2S(=O)c2ccc(C(=O)N3CCOCC3)cc21 (stereo not drawn) | inactive: 81%
COc1ccc(Cn2c(SCC(=O)N3CCN(c4ccc(F)cc4)CC3)nc3ccccc32)cc1 | inactive: 45%
